Test results from the supplement of paper PMC12067230.
This is a noisy data set.

assay: amyloid nucleation score relative to library mode (yeast Sup35 reporter selection) (log enrichment difference); higher = more amyloid nucleation; sequences are the first 22 residues of the Bri2 peptide extended by up to 12 random residues; conditions: random library (experiment): 1;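 active = nucleation score significantly above 0 at FDR 0.05; inactive = not significantly above 0 or absent from output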
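Note: [psi-pin-] Saccharomyces cerevisiae expressing SupN fusions, induced by 100 µM Cu2SO4, selected 7 d at 30 °C without adenine and uracil, scored by deep sequencing of output versus input.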

Row | Sequence | amyloid nucleation score
1 | EASNCFAIRHFENKFAVETLICDDWRNVYWQCP | 3.94
2 | EASNCFAIRHFENKFAVETLICRDLVGLALAYVQ | 2.04
3 | EASNCFAIRHFENKFAVETLICKLCWAPCIHNRP | inactive
4 | EASNCFAIRHFENKFAVETLICCMGHMYE | 9.27
5 | EASNCFAIRHFENKFAVETLICFSALSSRNRLRE | 2.47
6 | EASNCFAIRHFENKFAVETLICVFSIAQCWSLPI | inactive
7 | EASNCFAIRHFENKFAVETLICDALNDKRWMNNW | inactive
8 | EASNCFAIRHFENKFAVETLICTFRGGSKQSRIA | inactive
9 | EASNCFAIRHFENKFAVETLICWFYSDVKSECCT | inactive
10 | EASNCFAIRHFENKFAVETLICGCRYGNGVRHAC | inactive
11 | EASNCFAIRHFENKFAVETLICCEAFRVNKVRLY | -0.0385
12 | EASNCFAIRHFENKFAVETLICPNGTMMATIRVS | inactive
13 | EASNCFAIRHFENKFAVETLICACRWGPGAVSWA | 5.23
14 | EASNCFAIRHFENKFAVETLICRHNSCWAWILWQ | inactive
15 | EASNCFAIRHFENKFAVETLICDGLTVNCPFKRN | 6.87
16 | EASNCFAIRHFENKFAVETLICFSLILYVLKVV | inactive
17 | EASNCFAIRHFENKFAVETLICRWGEGLLLVSDG | inactive
18 | EASNCFAIRHFENKFAVETLICVSMGTTFRLCVH | inactive
19 | EASNCFAIRHFENKFAVETLICRLWCRGASEARG | 3.47
20 | EASNCFAIRHFENKFAVETLICELIGHAMSCRSA | inactive
21 | EASNCFAIRHFENKFAVETLICVLSAVTTRCRAR | inactive
22 | EASNCFAIRHFENKFAVETLICTF | inactive
23 | EASNCFAIRHFENKFAVETLICVATFAVSVVYAG | inactive
24 | EASNCFAIRHFENKFAVETLICMMHAKWNINCRV | 0.872
25 | EASNCFAIRHFENKFAVETLICVMMMHISLCVVR | -0.029
26 | EASNCFAIRHFENKFAVETLICLRLDRLFTIWYL | 6
27 | EASNCFAIRHFENKFAVETLICLRGAHILAASEI | inactive

Row | Sequence | amyloid nucleation score
28 | EASNCFAIRHFENKFAVETLICRARHGHRRTAPV | inactive
29 | EASNCFAIRHFENKFAVETLICTVLTLGNRASR | inactive
30 | EASNCFAIRHFENKFAVETLICEPGIRIYGRVIA | 2.64
31 | EASNCFAIRHFENKFAVETLICGYLHPWY | inactive
32 | EASNCFAIRHFENKFAVETLICRECSCCIPNVVP | -0.203
33 | EASNCFAIRHFENKFAVETLICLSRDPCGPAVRE | inactive
34 | EASNCFAIRHFENKFAVETLICRIGIQVICRRAD | inactive
35 | EASNCFAIRHFENKFAVETLICVEYSGVHECCWA | -0.12
36 | EASNCFAIRHFENKFAVETLICISLHLVLPRFIP | inactive
37 | EASNCFAIRHFENKFAVETLICFVGGGSRVPLGK | 2.4
38 | EASNCFAIRHFENKFAVETLICMCLRSMPQWGAG | inactive
39 | EASNCFAIRHFENKFAVETLICLWAGVPLWACVC | inactive
40 | EASNCFAIRHFENKFAVETLICYCRKGSL | 2.75
41 | EASNCFAIRHFENKFAVETLICEMIGEVERPLCG | inactive
42 | EASNCFAIRHFENKFAVETLICGNQGRRAMSTSV | inactive
43 | EASNCFAIRHFENKFAVETLICFCVITTDVKIDL | inactive
44 | EASNCFAIRHFENKFAVETLICTYGLSRHSSVSS | inactive
45 | EASNCFAIRHFENKFAVETLICAINAIIVLYMLE | inactive
46 | EASNCFAIRHFENKFAVETLICLSQMFSNVCKVS | -0.0935
47 | EASNCFAIRHFENKFAVETLICPNGP | inactive
48 | EASNCFAIRHFENKFAVETLICGPLRSKARRYNC | inactive
49 | EASNCFAIRHFENKFAVETLICKVVIRERMTTIA | inactive
50 | EASNCFAIRHFENKFAVETLICVWHRLAEWLEKG | inactive
51 | EASNCFAIRHFENKFAVETLICPPRFQTHMGSHW | 0.618
52 | EASNCFAIRHFENKFAVETLICFDGNGQRTRLVR | 0.506
53 | EASNCFAIRHFENKFAVETLICWRLLRR | inactive

same assay, conditions: random library (experiment): 2

Row | Sequence | amyloid nucleation score
54 | EASNCFAIRHFENKFAVETLICIIFCTGSSRSLG | inactive
55 | EASNCFAIRHFENKFAVETLICDDVYLGLVMPYI | 6.54
56 | EASNCFAIRHFENKFAVETLICVCKVSIT | 4.03
57 | EASNCFAIRHFENKFAVETLICPPCFNLASFTVE | inactive
58 | EASNCFAIRHFENKFAVETLICVTMVIGSFTRPI | inactive
59 | EASNCFAIRHFENKFAVETLICWYIATYVRSHFN | inactive
60 | EASNCFAIRHFENKFAVETLICFLMSKF | inactive
61 | EASNCFAIRHFENKFAVETLICGINYWHLFQGVG | inactive
62 | EASNCFAIRHFENKFAVETLICPSF | inactive
63 | EASNCFAIRHFENKFAVETLICFSMCVSACNGLR | 2.22
64 | EASNCFAIRHFENKFAVETLICCGRFHGRYAFYR | inactive
65 | EASNCFAIRHFENKFAVETLICVTNVVSQETMDT | 5.26
66 | EASNCFAIRHFENKFAVETLICAEGFNKFIFRCV | inactive
67 | EASNCFAIRHFENKFAVETLICWGLNHGRCVEWS | 5.35
68 | EASNCFAIRHFENKFAVETLICNCTLRWLSGSCA | inactive
69 | EASNCFAIRHFENKFAVETLICAEFD | inactive
70 | EASNCFAIRHFENKFAVETLICVGP | inactive
71 | EASNCFAIRHFENKFAVETLICTMGLPPSSCRSV | 0.66

Row | Sequence | amyloid nucleation score
72 | EASNCFAIRHFENKFAVETLICLWCTDSHSGHLL | 8.28
73 | EASNCFAIRHFENKFAVETLICDSDSMFSFFCTP | 7.83
74 | EASNCFAIRHFENKFAVETLICMQF | 6.44
75 | EASNCFAIRHFENKFAVETLICGSPERYNYVGSG | inactive
76 | EASNCFAIRHFENKFAVETLICFYYTAFVKGRE | inactive
77 | EASNCFAIRHFENKFAVETLICGFTMTRQVNGRR | 4.34
78 | EASNCFAIRHFENKFAVETLICWF | 3.97
79 | EASNCFAIRHFENKFAVETLICETDLWLEDHAR | inactive
80 | EASNCFAIRHFENKFAVETLICCLRVCYDNARVV | inactive
81 | EASNCFAIRHFENKFAVETLICVVFDMAYRRGAS | inactive
82 | EASNCFAIRHFENKFAVETLICAFIRT | inactive
83 | EASNCFAIRHFENKFAVETLICVSLSFFYVKDPR | -0.157
84 | EASNCFAIRHFENKFAVETLICNLCSSWAGMRVE | 7.64
85 | EASNCFAIRHFENKFAVETLICAVYVCYETNRHR | 2.25
86 | EASNCFAIRHFENKFAVETLICCKLNLRKAWSLG | inactive
87 | EASNCFAIRHFENKFAVETLICGTEEAPGRPRAW | inactive
88 | EASNCFAIRHFENKFAVETLICVDKNMDSEILEP | inactive

same assay, conditions: random library (experiment): 3

Row | Sequence | amyloid nucleation score
89 | EASNCFAIRHFENKFAVETLICRLRGCGLVGFS | inactive
90 | EASNCFAIRHFENKFAVETLICGWMDTTCGPWES | 7.24
91 | EASNCFAIRHFENKFAVETLICLIRGRFWWVWEL | 6.34
92 | EASNCFAIRHFENKFAVETLICQSDSDLVMAHWG | inactive
93 | EASNCFAIRHFENKFAVETLICLLSQCSRHSTVQ | -0.0354
94 | EASNCFAIRHFENKFAVETLICARPGVVWVTPGW | 3.76
95 | EASNCFAIRHFENKFAVETLICTYGVVLGILSNA | inactive
96 | EASNCFAIRHFENKFAVETLICCER | inactive
97 | EASNCFAIRHFENKFAVETLICCLKGVLGGLGRR | 6.13
98 | EASNCFAIRHFENKFAVETLICRNVFVMGSVCRG | 7.08
99 | EASNCFAIRHFENKFAVETLICNWAHGQAWQEGC | inactive
100 | EASNCFAIRHFENKFAVETLICVTFSNIATWC | 3.8
101 | EASNCFAIRHFENKFAVETLICVAGKVGRQPRWE | inactive
102 | EASNCFAIRHFENKFAVETLICYVGVFSESWDWW | 3.22
103 | EASNCFAIRHFENKFAVETLICLGYRAS | 6.59
104 | EASNCFAIRHFENKFAVETLICKWTHRPIDKVMC | 0.721

Row | Sequence | amyloid nucleation score
105 | EASNCFAIRHFENKFAVETLICQKCVSRLVNHA | inactive
106 | EASNCFAIRHFENKFAVETLICVLSDRI | inactive
107 | EASNCFAIRHFENKFAVETLICQAVLPWRVILVV | inactive
108 | EASNCFAIRHFENKFAVETLICVAMRVKE | inactive
109 | EASNCFAIRHFENKFAVETLICTAVIVFASIVKR | inactive
110 | EASNCFAIRHFENKFAVETLICYLWDSVLLPSTG | inactive
111 | EASNCFAIRHFENKFAVETLICYEA | inactive
112 | EASNCFAIRHFENKFAVETLICEVRVQAGNSHFD | 1.85
113 | EASNCFAIRHFENKFAVETLICLFWFHGTESSAE | 4.34
114 | EASNCFAIRHFENKFAVETLICQTRRAYCVRTSC | inactive
115 | EASNCFAIRHFENKFAVETLICLASL | inactive
116 | EASNCFAIRHFENKFAVETLICDELVCCIWAILQ | 5.25
117 | EASNCFAIRHFENKFAVETLICRHMSGVLWMYGT | inactive
118 | EASNCFAIRHFENKFAVETLICTWLTSLCFYSCK | inactive
119 | EASNCFAIRHFENKFAVETLICLIPYRTQSRAHK | 2.43
